From publication PMC4336329 (PLoS ONE, 2015) come the findings set out here.

Molecules are shown by their SMILES. Among all 310,000 compounds or so, about 2,200 (0.71%) showed an effect of 50% or more. Effects have a minus sign here. The list shows a part of the results.

The target in the experiment is human ether-à-go-go-related gene (hERG) potassium channel (human, UniProt Q12809). Description: primary screen, population patch clamp on CHO cells stably expressing hERG.
human ether-à-go-go-related gene (hERG) potassium channel, sequence (Q12809 whole entry, looked up): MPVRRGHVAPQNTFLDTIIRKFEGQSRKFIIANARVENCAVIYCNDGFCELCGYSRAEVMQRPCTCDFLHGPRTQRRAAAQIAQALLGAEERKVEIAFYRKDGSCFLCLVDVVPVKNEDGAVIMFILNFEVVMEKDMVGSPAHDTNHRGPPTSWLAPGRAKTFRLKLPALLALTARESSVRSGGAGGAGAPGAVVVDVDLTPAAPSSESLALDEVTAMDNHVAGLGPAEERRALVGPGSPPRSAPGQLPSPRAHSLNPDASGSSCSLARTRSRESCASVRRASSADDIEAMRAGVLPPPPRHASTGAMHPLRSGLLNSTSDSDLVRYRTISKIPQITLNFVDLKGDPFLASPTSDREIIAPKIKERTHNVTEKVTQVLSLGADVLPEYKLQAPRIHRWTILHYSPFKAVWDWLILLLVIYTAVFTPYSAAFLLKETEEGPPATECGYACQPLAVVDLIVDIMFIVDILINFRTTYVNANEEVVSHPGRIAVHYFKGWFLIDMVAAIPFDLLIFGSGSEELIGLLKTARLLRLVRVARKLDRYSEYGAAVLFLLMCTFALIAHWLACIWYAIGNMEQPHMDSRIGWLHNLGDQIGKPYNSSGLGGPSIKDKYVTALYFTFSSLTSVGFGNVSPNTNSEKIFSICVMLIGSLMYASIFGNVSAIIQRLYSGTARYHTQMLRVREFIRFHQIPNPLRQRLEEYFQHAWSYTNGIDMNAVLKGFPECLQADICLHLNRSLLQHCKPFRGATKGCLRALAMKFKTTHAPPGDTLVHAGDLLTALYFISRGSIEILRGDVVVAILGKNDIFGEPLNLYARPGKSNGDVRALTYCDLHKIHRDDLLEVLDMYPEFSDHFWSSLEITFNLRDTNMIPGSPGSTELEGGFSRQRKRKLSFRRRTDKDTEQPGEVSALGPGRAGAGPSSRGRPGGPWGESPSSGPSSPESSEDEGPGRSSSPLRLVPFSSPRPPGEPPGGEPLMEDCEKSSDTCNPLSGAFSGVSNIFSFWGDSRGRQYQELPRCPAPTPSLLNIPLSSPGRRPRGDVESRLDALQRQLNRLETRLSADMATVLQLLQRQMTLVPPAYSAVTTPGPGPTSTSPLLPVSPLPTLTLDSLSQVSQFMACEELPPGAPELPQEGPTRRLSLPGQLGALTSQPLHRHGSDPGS
Consider `CC(C)(C)NC(=O)c1ccc(COc2ccc(Cl)cc2Cl)o1`, for which the “hERG current change (%, negative = inhibition) at 1uM” value amounted to 18.1%.

In the case of `COc1c2occc2cc2ccc(=O)oc12`, the “hERG current change (%, negative = inhibition) at 1uM” value turned out to be 13.1%.

As to `COc1ccc(C(=O)NN(C)c2nc(-c3ccccc3)cc(C)c2S(C)(=O)=O)cc1`, the “hERG current change (%, negative = inhibition) at 1uM” value is 9.6%.

For `Cl.O=C(Cn1c(NCCO)nc2ccccc21)c1ccc(Cl)cc1Cl`, the “hERG current change (%, negative = inhibition) at 1uM” value came out at 8.38%.

For `Cc1ccc(C(=O)Oc2ccccc2N2C(=O)C3CCC(C)CC3C2=O)cc1` (centres unmarked), the “hERG current change (%, negative = inhibition) at 1uM” value was 0.627%.

As for `Cc1cc(C)n2nc(S(=O)(=O)N(C)c3ccccc3)nc2n1`, the “hERG current change (%, negative = inhibition) at 1uM” value came out at 7.79%.

`CCCc1nnc(SCC(=O)Nc2ccc(OCC)cc2)n1N`: the “hERG current change (%, negative = inhibition) at 1uM” value is recorded as -3.13%.

As to `COC(=O)c1cn(C(=O)c2cccc3ccccc23)c2ccccc12`, the “hERG current change (%, negative = inhibition) at 1uM” value worked out at 14.5%.

With `CC(=O)OC1CCC2(/C=N/O)C(=CCC3C4CCC(=O)C4(C)CCC32)C1` (centres unmarked), the “hERG current change (%, negative = inhibition) at 1uM” value is reported as 10.6%.

`CSc1ccc(NC(N)=S)cc1`: the “hERG current change (%, negative = inhibition) at 1uM” value came to 9.33%.

Regarding `COc1ccccc1/C=C/C(=O)NCC(=O)N/N=C/c1ccc(C(=O)O)cc1`, the “hERG current change (%, negative = inhibition) at 1uM” value came to 17.9%.

With `NS(=O)(=O)c1cccc(NC(=O)c2cncc(Br)c2)c1`, the “hERG current change (%, negative = inhibition) at 1uM” value stood at 17.5%.

As for `COc1ccc(S(=O)(=O)N2CCOCC2)cc1C(=O)NCC(c1ccco1)N1CCCC1` (centres unmarked), the “hERG current change (%, negative = inhibition) at 1uM” value is given as 15.1%.

In the case of `Cc1ccc(CNC(=O)CCS(=O)(=O)c2cc3c(cc2Cl)NC(=O)CO3)o1`, the “hERG current change (%, negative = inhibition) at 1uM” value is -0.206%.

Consider `Cn1c(/C(C#N)=C/Nc2ccccn2)nc2ccccc21`, for which the “hERG current change (%, negative = inhibition) at 1uM” value is 6.54%.

As to `CC(=O)c1ccc(NC(=O)C[n+]2cccc(C)c2)cc1.[Cl-]`, the “hERG current change (%, negative = inhibition) at 1uM” value worked out at 9.24%.

Turning to `Cc1cc(NC(=O)CS(=O)(=O)c2cn(Cc3cccc(F)c3)c3ccccc23)no1`, the “hERG current change (%, negative = inhibition) at 1uM” value is recorded as 8.45%.

Regarding `CCCOC(=O)C(=O)NNc1ccccc1`, the “hERG current change (%, negative = inhibition) at 1uM” value came out at 11.1%.

Regarding `CCC(C)(C)NC(=O)CN(Cc1cccs1)C(=O)CNS(=O)(=O)c1ccc(F)cc1`, the “hERG current change (%, negative = inhibition) at 1uM” value is 5.64%.

Regarding `Cc1onc(-c2ccccc2Cl)c1C(=O)N/N=C(\N)COc1ccc(Cl)cc1`, the “hERG current change (%, negative = inhibition) at 1uM” value is on record as -0.169%.

On to `COc1ccc(NC(=O)Nc2ccc(C)cc2OC(F)F)cc1OC`, for which the “hERG current change (%, negative = inhibition) at 1uM” value is listed as 7.51%.

`O=C(Cn1ccc(NC(=O)OCc2ccccc2)nc1=O)NCc1ccc2c(c1)OCO2`: the “hERG current change (%, negative = inhibition) at 1uM” value was determined as 13.4%.

Take `O=S(=O)(c1cnc(Cl)c(Cl)c1)N1CCc2ccccc21`: the “hERG current change (%, negative = inhibition) at 1uM” value is recorded as 14.8%.

In the case of `O=C(NC(=S)Nn1cnnc1)c1ccccc1Cl`, the “hERG current change (%, negative = inhibition) at 1uM” value amounted to 14.6%.

`COc1ccc(/C=C2/SC(=S)N(Cc3ccccc3)C2=O)cc1O`: the “hERG current change (%, negative = inhibition) at 1uM” value worked out at 12%.

For `Cc1cc(C(=O)CC#N)c(C)n1-c1ccc(OC(F)F)cc1`, the “hERG current change (%, negative = inhibition) at 1uM” value was 6.21%.

Regarding `CC(C)(C)OC(=O)N1CCC[C@H]1C(=O)NCc1ccc(Cl)cc1Cl`, the “hERG current change (%, negative = inhibition) at 1uM” value was 8.79%.

For `CCNC(=S)N1CCN(CCN2C(=O)c3cccc4cccc(c34)C2=O)CC1`, the “hERG current change (%, negative = inhibition) at 1uM” value was 1.34%.

Take `COc1ccccc1NS(=O)(=O)c1cc(NC(C)=O)ccc1N1CCCCC1`: the “hERG current change (%, negative = inhibition) at 1uM” value is given as 5.07%.

Regarding `NC(=O)C[n+]1cccc(C(=O)Nc2ccccc2)c1.[I-]`, the “hERG current change (%, negative = inhibition) at 1uM” value is 13.6%.

Regarding `Cc1ccc(NC(=S)N/N=C2\CCCCC2C)cc1` (centres unmarked), the “hERG current change (%, negative = inhibition) at 1uM” value is on record as -11.7%.

On to `O=C(c1ccc(Cl)c(S(=O)(=O)N2CCCCC2)c1)N1CCCCC1`, for which the “hERG current change (%, negative = inhibition) at 1uM” value is given as 8.94%.

Consider `CN(C)c1nc(N)nc(CSc2nc3cc(Cl)ccc3o2)n1`, for which the “hERG current change (%, negative = inhibition) at 1uM” value came out at 10.7%.

Take `CCOc1ccc(CN2CCNC(=O)C2CC(=O)NCCCn2ccnc2)cc1` (centres unmarked): the “hERG current change (%, negative = inhibition) at 1uM” value turned out to be 6.45%.

On to `COCCNC(=O)C(C)N(c1ccc(Oc2ccccc2)cc1)S(C)(=O)=O` (centres unmarked), for which the “hERG current change (%, negative = inhibition) at 1uM” value turned out to be 9.25%.

Regarding `CC(=O)Nc1cc(C(=O)N2CCCC2)ccc1S(=O)(=O)c1ccc(C)cc1`, the “hERG current change (%, negative = inhibition) at 1uM” value turned out to be 6.7%.

Regarding `Cc1nc2ccccc2c(=O)n1NC(=O)c1ccc(Cl)cc1`, the “hERG current change (%, negative = inhibition) at 1uM” value is 4.96%.

As for `CC(/C=N/n1c(-c2cc(C)[nH]n2)n[nH]c1=S)=C\c1ccco1`, the “hERG current change (%, negative = inhibition) at 1uM” value is listed as 6.84%.

Regarding `CN(Cc1ccccc1)C(=O)CN1CCN(C(c2ccccc2)c2ccccc2)CC1`, the “hERG current change (%, negative = inhibition) at 1uM” value was determined as 4.62%.

As for `CCN(C(=O)COC(=O)c1cnc(C)cn1)C1CCS(=O)(=O)C1` (centres unmarked), the “hERG current change (%, negative = inhibition) at 1uM” value is given as -7.09%.

In the case of `CC12C(=O)N(CCC(=O)O)C(=O)C1C1C=CC2C1` (centres unmarked), the “hERG current change (%, negative = inhibition) at 1uM” value is on record as 8.26%.

As for `CCC1CN(C(=O)N2CCC(C(=O)NCCc3ccccc3)CC2)c2ccccc2O1` (centres unmarked), the “hERG current change (%, negative = inhibition) at 1uM” value is reported as 8.85%.

For the compound `O/N=C(/CCc1ccccc1)C1(O)CCCCC1`, the “hERG current change (%, negative = inhibition) at 1uM” value is 11.7%.

On to `Cc1nn(-c2ccccc2)c2c1c(C)c(CCC(=O)N1CCOCC1)c(=O)n2C`, for which the “hERG current change (%, negative = inhibition) at 1uM” value was -0.489%.

As for `COc1cc(C(=O)NCC2CCCO2)cc(Br)c1OCc1ccccc1` (centres unmarked), the “hERG current change (%, negative = inhibition) at 1uM” value worked out at 4.96%.

As for `COCN(C#N)c1nc(N(C)C)nc(N(C)C)n1`, the “hERG current change (%, negative = inhibition) at 1uM” value was determined as 11.2%.

`COc1cccc(/C=N/NC(=O)CN(C2=NS(=O)(=O)c3ccccc32)c2ccccc2)c1`: the “hERG current change (%, negative = inhibition) at 1uM” value came to 5.25%.

`C/C(=N\NC(N)=S)c1ccccc1`: the “hERG current change (%, negative = inhibition) at 1uM” value is 3.89%.

Take `CCN(CC)CCCNC(=O)c1oc2ccc3c(c2c1C)C(O)CC(C)(C)O3` (centres unmarked): the “hERG current change (%, negative = inhibition) at 1uM” value was 8.18%.

Regarding `Cc1onc(-c2ccccc2)c1C(=O)N(C)CCc1ccccn1`, the “hERG current change (%, negative = inhibition) at 1uM” value turned out to be 5.97%.

For `CC(=O)c1ccc(-c2ccc([C@H]3[C@H]4C=CC[C@@H](C)[C@@H]4C(=O)N3Cc3ccccc3)c(F)c2)cc1`, the “hERG current change (%, negative = inhibition) at 1uM” value was determined as 11.6%.

Regarding `CCCC(=O)Nc1nnc(S(=O)(=O)N(CC)c2ccc(OC)cc2)s1`, the “hERG current change (%, negative = inhibition) at 1uM” value is recorded as 7.27%.

`Cn1cnnc1SCC(=O)Nc1ccc2nc(SCc3ccccc3F)sc2c1`: the “hERG current change (%, negative = inhibition) at 1uM” value is 13.8%.

Regarding `COC(=O)c1ccc(C23CC4(C2)[C@H](CN(Cc2cccnc2)[C@@H]4c2ccccc2)C3c2ccccc2)cc1` (some centres unmarked), the “hERG current change (%, negative = inhibition) at 1uM” value is 13%.

Regarding `COc1ccc(OC)c(NS(=O)(=O)c2ccc(NC(=O)C3COc4ccccc4O3)cc2)c1` (centres unmarked), the “hERG current change (%, negative = inhibition) at 1uM” value was found to be 8.14%.

As to `CCC1(C)NC(C(=O)O)Cc2c1[nH]c1ccccc21` (centres unmarked), the “hERG current change (%, negative = inhibition) at 1uM” value is 13.3%.
